Hit rate of the full screen: of about 310,000 compounds, about 14,000 (4.5%) showed an effect of 50% or more. Effects have a minus sign here. The list shows a part of the results.
What follows are compounds tested against human ether-à-go-go-related gene (hERG) potassium channel (human, UniProt Q12809) (assay: primary screen, population patch clamp on CHO cells stably expressing hERG).
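Note: peak tail current of the secondary pulse compared with the same well before compound.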

human ether-à-go-go-related gene (hERG) potassium channel, sequence (Q12809 whole entry, looked up): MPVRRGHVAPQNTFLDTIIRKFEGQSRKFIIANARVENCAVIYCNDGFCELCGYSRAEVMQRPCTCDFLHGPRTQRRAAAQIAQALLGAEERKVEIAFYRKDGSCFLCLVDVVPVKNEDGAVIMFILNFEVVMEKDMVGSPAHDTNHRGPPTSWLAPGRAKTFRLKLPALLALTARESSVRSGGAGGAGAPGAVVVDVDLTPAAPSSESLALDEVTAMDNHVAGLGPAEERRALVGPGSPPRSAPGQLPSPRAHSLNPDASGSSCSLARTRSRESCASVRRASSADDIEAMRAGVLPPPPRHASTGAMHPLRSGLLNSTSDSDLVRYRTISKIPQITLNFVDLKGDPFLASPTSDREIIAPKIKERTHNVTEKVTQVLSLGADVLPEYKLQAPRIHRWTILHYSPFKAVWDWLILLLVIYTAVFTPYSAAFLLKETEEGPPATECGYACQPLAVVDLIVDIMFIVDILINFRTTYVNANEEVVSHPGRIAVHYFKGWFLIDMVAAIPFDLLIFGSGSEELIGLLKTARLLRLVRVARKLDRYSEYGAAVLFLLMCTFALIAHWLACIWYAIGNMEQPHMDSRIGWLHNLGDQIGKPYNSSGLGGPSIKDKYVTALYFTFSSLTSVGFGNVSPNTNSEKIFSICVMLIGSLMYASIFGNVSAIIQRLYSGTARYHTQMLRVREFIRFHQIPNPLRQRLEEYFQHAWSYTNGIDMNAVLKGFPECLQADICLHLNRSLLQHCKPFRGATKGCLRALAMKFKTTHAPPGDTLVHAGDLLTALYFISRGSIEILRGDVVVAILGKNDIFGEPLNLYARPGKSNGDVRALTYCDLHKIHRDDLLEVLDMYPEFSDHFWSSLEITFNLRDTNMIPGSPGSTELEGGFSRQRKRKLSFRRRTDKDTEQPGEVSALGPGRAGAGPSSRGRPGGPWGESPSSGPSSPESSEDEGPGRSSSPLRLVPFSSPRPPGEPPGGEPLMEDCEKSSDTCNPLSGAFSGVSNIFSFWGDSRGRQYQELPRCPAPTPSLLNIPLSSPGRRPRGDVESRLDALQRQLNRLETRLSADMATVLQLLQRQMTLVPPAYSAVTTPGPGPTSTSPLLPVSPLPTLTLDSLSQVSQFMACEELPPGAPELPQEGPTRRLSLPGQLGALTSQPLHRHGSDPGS

Compound | hERG current change (%, negative = inhibition) at 10uM [%]
Cc1cc(C)c(C#N)c(N2CCCC(C(N)=O)C2)n1 (stereo not drawn) | -9.2
COc1ccc2c(Cl)c(C(=O)N/N=C/c3ccc4c(c3)OCO4)sc2c1 | 19.5
C=CCSc1nnc(NC(=O)COc2ccc3ccccc3c2)s1 | 11.8
CCn1nc(C(=O)NCC(c2cccs2)N2CCOCC2)c2ccccc2c1=O (stereo not drawn) | -12.3
COC1CCN(C(=O)c2ccc3oc(Cc4ccc(Cl)cc4)nc3c2)CC1 | -9.5
CCC(Sc1nc(N)c(NC(=O)c2ccc(OC)cc2)c(=O)[nH]1)C(=O)O (stereo not drawn) | 1.73
COc1ccc(N(CC(=O)Nc2cccc(C)c2C)S(=O)(=O)c2c(C)n[nH]c2C)cc1 | -12.5
Oc1ccccc1OCC(O)c1ccccc1 (stereo not drawn) | 22.8
N#Cc1ccc(C(=O)NC23CC4CC(CC(C4)C2)C3)cc1 | -6.7
COc1ccc(/C=C2/SC(=O)N(NS(=O)(=O)c3ccccc3)C2=S)cc1OC | 0.364
Cc1ccc(NS(=O)(=O)c2ccc(CCC(=O)NCc3cccnc3)cc2)cc1 | 14.9
CCN(CC)CCCn1c2c(c(SCC(=O)Nc3ccc(C)c(F)c3)nc1=O)CCC2 | -64.5
COC(=O)C1=C(CSc2nncn2C)NC(=O)NC1c1ccc(F)cc1 (stereo not drawn) | 11.1
Cc1nc2c(C)cccc2cc1C(=O)N/N=C/c1ccc(O)cc1 | 6.88
CCc1nc(N[C@@H](CC(C)C)C(=O)O)c2oc3ccccc3c2n1 | -9.19
CCOc1ccc(Br)cc1C(=O)N/N=C/c1cccnc1 | 1.64
CN1C(=O)C(=C2CCCCCC2)SC1=S | 6.39
Cc1ccccc1OCC(=O)Nc1ccccc1-c1ccccc1NC(=O)COc1ccccc1C | 1.48
CC(=O)N1CC(=O)Nc2ccc(Cl)cc2C1c1ccc(F)cc1 (stereo not drawn) | -22.6
C/C(=N\NC(=O)COc1ccc2ccccc2c1)c1cccs1 | -22.3
O=C(NCc1ccco1)c1ccc(=O)oc1 | 2.12
Cc1cccc(NC(=O)C2CCCN2/C=C/C(=O)C(F)(F)F)c1C (stereo not drawn) | 4.61
COc1ccc(NC(=O)NNC(=O)COc2ccc(Cl)cc2C)cc1OC | 7.77

Compound | hERG current change (%, negative = inhibition) at 10uM [%]
O=C(CCN1C(=O)S/C(=C/c2ccc(F)cc2)C1=O)Nc1ccc(O)c(C(=O)O)c1 | 18.4
COc1ccc(NC(=O)COc2cc(O)c3c(c2)OC(C)(C)CC3=O)cc1 | -17.5
Cn1nc(-c2ccccc2)cc1NC(=O)CCCC(=O)O | 15.1
Cc1ccc2nc(-c3cccc(NC(=O)c4ccc5c(c4)OCCO5)c3)oc2c1 | 2.47
CCc1ccccc1NC(=O)C1NC(=O)CC1c1ccccc1 (stereo not drawn) | -7.59
CC12CCC(=O)N1C(C(=O)Nc1nc(-c3ccccc3)cs1)CS2 (stereo not drawn) | 10.1
CC1CN(C(=O)/C=C/c2ccc([N+](=O)[O-])s2)CC(C)O1 (stereo not drawn) | -39
O=C(Nc1cc(-c2ccccc2)[nH]n1)c1ccc(Cl)cc1 | 1.2
COc1ccccc1C(=O)COC(=O)/C=C/c1ccccc1 | -19.2
Cc1c(C#N)c2ncn(Cc3ccccn3)c(=O)c2n1-c1ccccc1 | -10.8
COC(=O)C1=C(C)N(Cc2ccc(OC)cc2)C(=O)C1 | 14.8
C/C(=N\N1C(C)CCCC1C)c1ccccc1O (stereo not drawn) | 14.1
Cn1/c(=N/NC(=O)c2ccccc2Br)sc2ccccc21 | 8.23
O=S(=O)(c1ccccc1)c1ccc(NCc2ccco2)cc1 | -4.21
CC1(C)COCN1S(=O)(=O)c1ccc(C(=O)Nc2nnc(-c3ccc(Cl)s3)o2)cc1 | -5.52
CCOc1ccc(NC(=S)NC(=O)c2c(Cl)c(C)nn2C)c([N+](=O)[O-])c1 | 8.55
O=C(c1ccccc1)c1ccccc1NC(=O)C1CCCN1Cc1ccccc1 (stereo not drawn) | 3.87
CC(=O)N1CCN(S(=O)(=O)c2ccc(S(=O)(=O)NC3CC3)cc2)CC1 | -6.62
COc1ccc(C(=O)NCC(c2ccco2)N2CCc3ccccc32)cc1 (stereo not drawn) | -2.29
COc1ccc(N2CS(=O)(=O)/C(=C/N(C)C)C2=O)cc1 | -5.92
CC1Cc2ccccc2N1C(=O)CSc1nc(-c2ccccc2)cs1 (stereo not drawn) | 3.32
O=C(O)CSC1=NC(=Nc2ccc(Cl)cc2)C2(CCCCC2)N1c1cccc(C(=O)O)c1 | 2.7
